In the RNAGym collection of RNA variant scans (doi:10.1073/pnas.2313332121):
Variants at the floor of the assay are shown more often than the library holds them.

B1: TPR 5TU (parent)
chain: GGAUCUUCUCGAUCUAACAAAAAAGACAAAUCUGCCACAAAGCUUGAGAGCAUCUUCGGAUGCAGAGGCGGCAGCCUUCGGUGGCGCGAUAGCGCCAACGUUCUCAACUAUGACACGCAAAACGCGUGCUCCGUUGAAUGGAGUUUAUCAUG

Variants of: B1
Test: polymerase ribozyme fitness, log enrichment relative to wild type (log ratio); higher = more active; in vitro selection for triplet polymerase activity
Summary of the method: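 After PCR construction and transcription, each subunit's mutant library from a heterodimeric triplet polymerase ribozyme was annealed with a biotinylated primer, the partner subunit and triplets. Incubation was frozen, at −7 °C, and extended constructs were gel-excised, bound to streptavidin beads and amplified by RT-PCR, in one selection round done in triplicate. Fitness is the logarithm of a genotype's enrichment divided by that of the wild type, from inverse-variance-weighted replicate averages of Illumina-sequenced inputs and outputs. The base of the logarithm is 2, and genotypes needed ≥10 input reads and ≥1 read per output.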
For GGAUCGUCUCGAUCUAACAAAAAAGACAAAUCUGCCACUAAGCUUGGGAGCAUCUUCGGAUGCAGAGGCGGCAGCCUUCGGUGGCGCGAUAGCGCCAAGGUUCUCAACUAUGACACGCAAAACGCGUGCUCCGUUGAAUGGAGUUUAUCAUG [U6G A39U A47G C99G], the “polymerase ribozyme fitness (log ratio)” value was no more than -4.2.
With GGAUCGUCUCGAUCUAACAAAAAAGACAAAUCUGCCACACACAUUGAGAGCAUCUUCGGAUGCAGAGGCGGCAGCCUUCGGCGGCGCGAUAGCGCAUACGUUCUCAACUAUGACACGCAAAACGCGUACUCCGUUGAAUGGAGUUUAUCAUG [U6G A40C G42C C43A U82C C96A A97U G128A] the “polymerase ribozyme fitness (log ratio)” value was no more than -4.2.
For GGAUCGUCUCGAUCUAACAAAAAAGACAAAUCUGCCACAGAGCUUGAGAGCAUCUUCGGAUGCAGAGGCGGCAGCCUCCGGGGGCGCGAUAGCUCCAACGUUCUCAACUAUGACACGCAAAACGCGUGCUCCGUUGAAUGGAGAUUAUCAUG [U6G A40G U78C U82G G94U U144A], the “polymerase ribozyme fitness (log ratio)” value was no more than -4.2.
For GGAUCGUCUCGAUCUAACAAAAAAGACAAAUCUGCCACAUAGCUUGAGAGCAUCUUCGGAUGCAGAGACGGCAGCCUUCGGUGGCGCGAUAUCGCCAACGUUCUCAACUAUGACACGCAAAACGCGUGCUCCGUUUAAUGGAGUUUAUCAUG [U6G A40U G68A G92U G136U], the “polymerase ribozyme fitness (log ratio)” value was no more than -4.2.
With GGAUCGUCUCGAUCUAACAAAAAAGACAAAUCUGCCACAACGCUUGAGGGCAUCUUCGGAUGCAGAGGCGGCAGCCUUCGGUGGCGCGAUAGCGGCAACGUUCUCAACUAUGACACGCAAAACGCGUGCUCCGUUGAAUGGAGUUUAUCAUG [U6G A41C A49G C95G] the “polymerase ribozyme fitness (log ratio)” value was -2.03.
For GGAUCGUCUCGAUCUAACAAAAAAGACAAAUCUGCCACAAGGCUUGAUAGCAUUUUCGGAUGCAGAGGCGGCAGCCUUCGGUGGCGCGAUAGCGCCAACGUUCUCAACUAUGACACGCAAAUCGCGUGCUCCGUUGAAUGGAGUUUAUCAUG [U6G A41G G48U C54U A122U], the “polymerase ribozyme fitness (log ratio)” value was -0.949.
With GGAUCGUCUCGAUCUAACAAAAAAGACAAAUCUGCCACAAAGCUUGAGAGCAUCUUCGGAUGCAGAGGCGGCCGCCUUCGGUGGCGCGAUAGCGCCAAUGUUCUCAACUAUGACACGCAAAACGCGUGCUCCGUUGAAUGGAGUUUAUCAUG [U6G A73C C99U] the “polymerase ribozyme fitness (log ratio)” value was no more than -4.2.
For GGAUCGUAUCGAUCUAACAAAAAAGACAAAUCUGCCACAAAGCUUGAAAGCAUCUGCGGAUGCAGAGGCGGCAGUCUUCCGUUGCGCGAUAUAGCCAAUUUUCUCAACUAUGACACGCAAAACGCGUGCUCCGUUGAAUGGAGUUUAUCAUG [U6G C8A G48A U56G C75U G80C G83U G92U C93A C99U G100U], the “polymerase ribozyme fitness (log ratio)” value was no more than -4.2.
In the case of GGAUCGUGUCGAUCUAACAAAAAAGACAAAUCUGCCACAAAGCUUGAGAGCAUCUUCGGAUGCAGAGGCGGCAGCCUUCGGUGGCGCGAUAGCGCCAACGUUCUCAACUAUGACACGCAAAACGCGUGCUCCGUUGAAUGGAGUUUAUCAUG [U6G C8G], the “polymerase ribozyme fitness (log ratio)” value is reported as -3.65.
With GGAUCGUGUCGAUCUAACAAAAAAGACAAAUCUGCCACAAAGCUUGAGCGCAUUUUCGGAUGCAGAGGCGGCAGCCUUCGGUGGCGCGAUGGCGCGAACGUUCUCAACUAUGACACGCAAAACGCGUGCUCCGUUGAAUGAAGUUUAUCAUG [U6G C8G A49C C54U A91G C96G G141A] the “polymerase ribozyme fitness (log ratio)” value was no more than -4.2.
With GGAUCGUGUCUAUCUGACAAAAAAGACAAAUCUGCCACAAAGCUUGAGAGCAUCUACGGAUGCAGAGGCGGCCGCCUUCGGUGGCGCGAUAGCGUCAACGUUCUCAACUAUGACACGCAAAACGCGUGCUCCGUUGAAUGGAGUUUAUCAUG [U6G C8G G11U A16G U56A A73C C95U] the “polymerase ribozyme fitness (log ratio)” value was no more than -4.2.
In the case of GGAUCGUUUCGAUCUAACAUAAAAGACAAAUCUGCCACAAAGCUUGAGAGCAUCUUCGGAUGCAGAGGCGGCAGCCUUCGGUGGCGCGAUAGCCCCAACGUUCUCAACUAUGACACGCAAUACGCGCGCUCCGUUGAAUGGAGUUUAUCAUG [U6G C8U A20U G94C A121U U127C], the “polymerase ribozyme fitness (log ratio)” value is reported as no more than -4.2.
With GGAUCGUUUCGAUCUAACAAAAAAGACAAACCUGCCACAAAGCUUGAGAGCAUCUUCGGAUGCAGAGGCGGCAGCGUUCGGUGGCGCGAUAGCGCCAACGUUCUCAACGAUGACACGCGAAACGCGUGCUCCGUUGAAUGCAGUUUAUCAUG [U6G C8U U31C C76G U109G A119G G141C] the “polymerase ribozyme fitness (log ratio)” value was no more than -4.2.
In the case of GGAUCGUCUGGAUCUAACAAAAAAGACAAAUCUGCCACAAAGCUUGAGAGCAUCUUCGGAUGCAGAGGCGGCAGCCUUCGGUGGCGCGAUAGCGCCAACGUUCUCAACUAUGACACGCAAAACGCGUGCUCCGUUGAAUGGAGUUUAUCAUG [U6G C10G], the “polymerase ribozyme fitness (log ratio)” value is reported as -3.01.
In the case of GGAUCGUCUGGAUAUAACAAAAAAGACAAAUCUGCCACAAAGCUUGAGCGCAUCUUCGGAUGCAGAGGCGGCAGCCUUCGGUGGAGCGAUAGUGCCAACGUUCUCAACUAUGACAUGCAAAACGCGUGCUCCGUUGAAUGGAGUUUAUCAUG [U6G C10G C14A A49C C85A C93U C116U], the “polymerase ribozyme fitness (log ratio)” value is reported as no more than -4.2.
For GGAUCGUCUCGAUAUAACAAAAAAGACAAAUCUGCUACAAAGCUUGAGAGCAUCUUCUGAUGCAGAGGCGGCAGCUUUCGGUGGUGCGAUAGCGCCAACGUUCUCAACUAUGACACGCAAUACGCGUGCUCCGUCGAAUGGAGUUUAUCAUG [U6G C14A C36U G58U C76U C85U A121U U135C], the “polymerase ribozyme fitness (log ratio)” value was no more than -4.2.
For GGAUCGUCUCGAUGUAACCAAAAAGACAAAUCUGCCACAAAGCUUGAGAGCGUCUUCGGAUGCAGAGGCGGCAGCCUUCGGUGGCCUGAUAGCGCCAACGUUCUCAACUAGGACACGCAAAACGCGUGCUCCGUUGAAUUGAGUUUAUCAUG [U6G C14G A19C A52G G86C C87U U111G G140U], the “polymerase ribozyme fitness (log ratio)” value was no more than -4.2.
For GGAUCGUCUCGAUGUAACAAAAAAGACAAAUCUGCCACAAAGCUUGAUAGCAUCAUCGGUUGCAGAGGCGGCAGCCUUCGGUUGCGCGAUACCGCCAACGUUCUCAAAUAUGACACGCAAAACGCGUGCUCCGAUGAAUUGAGUUGAUCAUG [U6G C14G G48U U55A A60U G83U G92C C108A U134A G140U U146G], the “polymerase ribozyme fitness (log ratio)” value was no more than -4.2.
In the case of GGAUCGUCUCGAUUUAACAAAAAAGACAAAUCUGCCACAAAGCUUGAGAGCAUCUUCGGAUGCAGAGGCGGCAGCCUUCGGUGGCGCGAUAGCGCCAACGUUCUCAACUAUGACACGCAAAACGCGUGCUCCGUUGAAUGGAGUUUAUCAUG [U6G C14U], the “polymerase ribozyme fitness (log ratio)” value is reported as -1.09.
